Test results taken from PubChem BioAssay AID2546 (National Center for Advancing Translational Sciences (NCATS), 2010).
The campaign covered roughly 310,000 compounds. About 11,000 (3.5%) were called active. The inconclusive results got no clear call from the source; some entries with a clear call stand among them for comparison. Calls follow the shape of the dose curve; as a rule, active = well fitted inhibition curve with a large enough effect; inconclusive = small, poorly fitted or top-dose-only effect, or effect the other way; inactive = flat fitted curve, though single readings scatter. No potency is given beside an inconclusive call; the fits are too rough.
Potency is read from the fitted curve at half-maximal effect; tags tell the direction and shape of the fitted curve.

Assay: VP16 counterscreen qHTS for inhibitors of ROR gamma transcriptional activity;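 also: Gal4-VP16 expression switched on by copper sulfate through the metallothionein promoter; nearly all actives have a fitted effect of over 50% in size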
Conditions: Drosophila S2 Gal4-VP16 UAS-luciferase, luminescence, 20 h; series mostly up to 53.6 µM
For CCCOc1ccc(CN(CCC#N)C(=S)NC(=O)c2ccccc2)cc1, the Potency was active: 0.562 µM. In the case of COc1ccc(C(=O)CSc2n[nH]c(C)n2)cc1[N+](=O)[O-], the Potency was inconclusive [inhibitor, single point]. With Fc1ccc2[nH]c3c(NCCN4CCOCC4)ncnc3c2c1 the Potency was active: 12.6 µM. For COC(=O)c1ccc(NC(=O)CNS(=O)(=O)c2cccs2)cc1, the Potency was inconclusive [inhibitor, full curve]. In the case of c1ccc(C(Cc2nc(-c3ccncc3)no2)c2ccccc2)cc1, the Potency was active: 10 µM. For CC(C)c1ccc(S(=O)(=O)c2cc3cc(Br)ccc3oc2=O)cc1, the Potency was inconclusive [inhibitor, partial curve, poor fit]. With CCc1nnc(NC(=O)CN2C(=O)/C(=C/c3cc(OC)c(OC)c(OC)c3)SC2=S)s1 the Potency was inconclusive [inhibitor, single point]. In the case of CCOC(=O)C/C(C)=N/NC(=O)C1CC1(c1ccccc1)c1ccccc1 (stereo not drawn), the Potency was inconclusive [inhibitor, single point]. With COc1ccc(C(=O)NC(=S)N(C)Cc2ccccc2)cc1Br the Potency was active: 0.708 µM. With Cc1nnc(Sc2cc(NCCCO)c([N+](=O)[O-])c3nonc23)s1 the Potency was active: 6.31 µM. In the case of CCc1ccc(CNC(=O)c2ccc3nc(C4CCCCC4)oc3c2)nc1, the Potency was active: 11.2 µM. In the case of COc1ccc(S(=O)(=O)n2nc(OCc3cccs3)cc2N)cc1, the Potency was inconclusive [inhibitor, single point]. With Cc1cccc(CNc2nc(-c3cccnc3)nc3ccccc23)c1 the Potency was “inactive”. With Cc1cccc(NC(=O)NC(=S)NC(=O)c2ccccc2)c1 the Potency was active: 5.01 µM. For Cc1cc(N2CCOCC2)nc2ccc(NC(=S)NCCC(C)C)cc12, the Potency was inconclusive [inhibitor, single point]. In the case of COc1ccc(OC)c(N/C=C/C(=O)c2ccccc2)c1, the Potency was active: 5.01 µM. In the case of CCOC(=O)c1c(-c2cccs2)csc1NC(=O)CSc1ncn[nH]1, the Potency was inconclusive [inhibitor, single point]. With Cc1ccccc1OC(=O)Cn1c(C(F)(F)F)nc2ccccc21 the Potency was inconclusive [inhibitor, single point]. In the case of CN1C(CC(=O)Nc2ccc(Cl)cc2Cl)c2ccccc2CC1(C)C (stereo not drawn), the Potency was inconclusive [inhibitor, single point]. For NC(=S)Cc1nc(-c2ccccc2)cs1, the Potency was active: 8.91 µM. With COc1cc2cc(CN(CCc3ccccc3C)C(=S)NCCCN(C)C)c(=O)[nH]c2cc1OC the Potency was inconclusive [inhibitor, partial curve, poor fit]. In the case of CC(C)(C)OC(=O)[C@H](Cc1ccccc1)NC(=O)c1nc[nH]c1C(=O)NCC(=O)OCc1ccccc1, the Potency was inconclusive [inhibitor, single point]. For O=C(Nc1ccc(Cl)cn1)Nc1ccc(Cl)cn1, the Potency was “inactive”. In the case of Cc1[nH]n2c(=O)c3c(nc2c1-c1ccccc1)CCC3, the Potency was inconclusive [inhibitor, single point]. For O=C(CSc1ccccn1)Nc1ccc2c(c1)C(=O)c1ccccc1C2=O, the Potency was inconclusive [inhibitor, single point]. In the case of CCC(C)c1ccc(NC(=S)NCc2ccccn2)cc1 (stereo not drawn), the Potency was active: 8.91 µM. In the case of Cc1ccc(C)c(N2CCN(C(=O)c3nn(C)c4c3CS(=O)(=O)c3ccccc3-4)CC2)c1, the Potency was “inactive”. For COc1ccc(-n2nc(C(=O)NCC(=O)N3CCCC3)c3ccccc3c2=O)cc1, the Potency was “inactive”. With CCn1c(C)nc2cc(C(=O)N/N=C/c3ccccc3C)ccc21 the Potency was inconclusive [inhibitor, single point]. For O=C(CCNC(=O)c1ccccc1Cl)Nc1cc(S(=O)(=O)N2CCOCC2)ccc1N1CCOCC1, the Potency was “inactive”. With Cn1nccc1-c1cc(Cl)cc(Cl)c1O the Potency was active: 31.6 µM. In the case of CCn1ncc(Br)c1C(=O)Nc1ccccc1OC, the Potency was “inactive”. With CC(=O)c1c(COC(=O)c2ccncc2)nc2ccccc2[n+]1[O-] the Potency was inconclusive [inhibitor, single point]. In the case of Oc1cc(NCc2cccnc2)ccc1-c1nc2ccccc2o1, the Potency was inconclusive [inhibitor, single point]. In the case of Cc1ccc(N=C2C(=S)N(c3ccc(C)cc3)C(=N)N2/N=C/c2ccc(Cl)cc2)cc1, the Potency was active: 3.16 µM. For O=S(c1ccc2ccccc2c1)c1cnns1 (stereo not drawn), the Potency was inconclusive [inhibitor, single point]. For Cc1ccc(NC(=O)c2ccc3c(c2)OCCO3)cc1S(=O)(=O)Nc1cccc(Cl)c1, the Potency was inconclusive [inhibitor, single point]. With COC(=O)N/N=C/c1ccc(OCCSc2ccc(Cl)cc2)c(OC)c1 the Potency was inconclusive [inhibitor, partial curve]. With Cc1ccc2[nH]c3c(c2c1)CC/C(=C/c1ccccc1)C3=O the Potency was active: 6.31 µM. For COc1cccc(Cn2c(=O)c(-c3cccc(F)c3)nc3cncnc32)c1, the Potency was “inactive”. For COc1cc(Nc2nc3ccccc3nc2NS(=O)(=O)c2ccc([N+](=O)[O-])cc2)cc(OC)c1OC, the Potency was active: 5.01 µM. With COc1ccc(/C=N/NC(=O)c2cc(C)n(-c3ccccc3)c2C)cc1OC the Potency was inconclusive [inhibitor, full curve]. With CN(C)c1nc(=NCc2ccco2)ss1 the Potency was inconclusive [inhibitor, partial curve, poor fit]. For N#CC1=C(N)Oc2n[nH]c(-c3ccccn3)c2C1c1c(F)cccc1Cl (stereo not drawn), the Potency was active: 8.91 µM. For Cc1nc2ccc(NC(=O)CCS(=O)(=O)c3ccc(Cl)cc3)cc2s1, the Potency was inconclusive [inhibitor, partial curve]. With COc1ccccc1NC(=O)c1ccc(Cl)c(S(=O)(=O)N2CCCCC2)c1 the Potency was “inactive”. With COc1cc(/C=C2\N=C3CCCCCN3C2=O)ccc1O the Potency was “inactive”. With O=C1c2cc(Cl)ccc2OC2(CCNCC2)C12CC(c1ccc(Cl)cc1)=NO2 (stereo not drawn) the Potency was inconclusive [inhibitor, single point].
